Results as given in the supplement of paper PMC3334620.
Whole data set: some 33,000 sequences, median “E-score (-0.5 to 0.5)” near -0.016, cut for the highest 2% near 0.32. The list shows a part of the results.

Target: T1, Stp1 (UniProt B3LFK1)
T1 sequence: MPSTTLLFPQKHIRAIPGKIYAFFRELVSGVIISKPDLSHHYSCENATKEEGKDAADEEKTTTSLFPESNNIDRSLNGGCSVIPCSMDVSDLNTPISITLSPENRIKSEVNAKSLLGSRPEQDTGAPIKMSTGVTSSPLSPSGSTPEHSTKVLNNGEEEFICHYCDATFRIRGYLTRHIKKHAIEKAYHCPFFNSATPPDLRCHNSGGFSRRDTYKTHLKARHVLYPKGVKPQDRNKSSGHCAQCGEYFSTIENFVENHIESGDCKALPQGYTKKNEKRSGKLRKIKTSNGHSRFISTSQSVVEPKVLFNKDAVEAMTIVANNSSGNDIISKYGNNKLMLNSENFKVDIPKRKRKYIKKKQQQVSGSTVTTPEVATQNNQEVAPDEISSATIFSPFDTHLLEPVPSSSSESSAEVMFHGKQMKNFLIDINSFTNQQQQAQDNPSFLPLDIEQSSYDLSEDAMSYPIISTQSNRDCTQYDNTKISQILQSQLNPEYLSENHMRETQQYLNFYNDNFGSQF
Assay: PBM E-score (8-mer binding enrichment) (E-score (-0.5 to 0.5)); higher = stronger / more preferred TF binding; most listed sequences are background and not binding sites
Conditions: protein concentration: 200 nM; construct: GST-full length
Outline: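 Yeast transcription factors, full-length or as DNA-binding domains, were expressed with a GST tag using PURExpress in vitro transcription/translation. At about 100-200 nM they were applied to universal all-10-mer Agilent arrays, double-stranded by primer extension on fresh or once-stripped slides. Fluorescent anti-GST detected bound protein, and masliner normalised the scans. E-scores for ungapped eight-base words, pooled with reverse complements, came from the Universal PBM Analysis Suite.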

Sequence	PBM E-score
CCGGGAAC	-0.0364
ATTCTTAA	-0.0515
GCTATCCA	-0.0017
GCGGCAAC	0.384
ACATGCGA	0.0193
ACTGATCT	0.0738
GAGGACAC	-0.0359
ACCTCCAC	-0.239
ATGTGGTA	0.0598
CGTTAGAG	-0.063
GCGAGAGA	-0.147
GCCATACC	-0.0417
CGGACTAG	-0.111
CCCTTTTA	-0.298
GAGTTATA	0.0546
AGGATAGG	-0.0758
GGCGAGGA	-0.165
TCGTCAGA	-0.0604
GGTAATCA	0.0354
TAAAAGGA	0.00436
CTTGCGTC	-0.128
CCGACTCC	-0.206

Sequence	PBM E-score
ACAATTGG	-0.0534
GAGCTTGC	-0.189
AACATTTC	-0.046
AGAGAGAC	-0.302
GCGAATTA	0.229
GACGTGGA	-0.127
AAGTAGCC	-0.0248
ATCCGGCG	0.0798
ATACGGAT	0.262
ACAGCGCA	-0.141
CCTCCTTC	-0.168
AAAGAAGC	-0.0111
CCAAGCGC	-0.0355
ATGTGAAT	-0.0139
AAATCCAT	0.119
AGCTACAG	-0.325
AGTTTACA	0.0264
ATTAGCAC	-0.11
GGACTGCC	0.0385
TCGCGGAA	-0.0668
GAATCTGC	-0.0926
GGACTATA	-0.00864

Sequence	PBM E-score
CGAATTGC	0.00225
AGGTACCG	0.104
GAGCCGCA	0.448
CTACCCCC	-0.451
CCGACCGA	0.0122
CAAGGAGG	-0.108
CTGTCTTA	0.0291
AGACACGG	0.363
ATGCCCCA	-0.0992
CGACTAGC	-0.13
TCGGGAGA	-0.257
AGAATCCG	0.132
AATCTTCT	0.0359
AACATCTG	0.058
CTGTGACA	-0.12
ATAGACGC	0.15
ATCAGGAA	0.202
CCGCTGCA	0.0284
AACAGAGC	0.00906
CTGCGAAG	-0.175
GGCACCCC	0.178
AGCCGAGA	-0.143

Sequence	PBM E-score
CGCGCAAG	0.16
TCCTCAGA	-0.178
CGAGCCAC	-0.101
CTAAGTTA	0.11
AAGATCAT	-0.069
CCTCTGAC	-0.0386
CAACAACC	-0.171
ACGGTGTG	-0.0551
ACCCACAT	-0.137
CCGAATAA	0.163
CCACAAAG	0.169
GTACGCTA	-0.00166
ACAGAAGA	0.125
ACATTTTG	0.131
GACTAGCC	-0.194
TTAGTAAA	0.257
ACCGCGAG	-0.0635
CGGCCCAA	0.247
CGGAACCA	0.0682
ATTGATGA	0.0332
ACGATGGA	0.0174
AGGGGATG	-0.228

Sequence	PBM E-score
AAGTAGGC	-0.0994
AGATGCCG	0.397
CGGATATC	0.0645
ATAGTCGA	0.00569
ACACTAGA	0.0321
AGCATAGG	-0.253
CATCTTAC	-0.0405
ACAACTAT	0.0651
CCCATGCA	-0.116
TCTATAAA	0.00205
AAGCTAGG	-0.167
CCCCAGTC	-0.324
CAGCAATA	0.182
GCTATAGC	-0.278
CCAATATA	-0.179
CATTCCGG	-0.147
CAGGCCCC	-0.357
GCCATTAC	0.0149
ATCAAGAT	0.0599
GGCCGATA	0.0187
AGGGCTTC	0.0634
